Test results from PubChem BioAssay AID1508624 (National Center for Advancing Translational Sciences (NCATS), 2021).
Out of some 48,000 compounds screened, about 120 (0.25%) were called active. The shares of active, inactive and inconclusive entries below differ from those in the screen. The call rests on the fitted dose curve; in most records, active means well fitted activation curve with a large enough effect; inconclusive means small, poorly fitted or top-dose-only effect, or another doubt; inactive means no such curve, though single readings can be large or run the other way. Potencies beside an inconclusive call are fits to weak or partial responses and may not hold up.

Test: Primary qHTS for Identification of Small Molecule Activators of Huntingtin-Antisense Promoter Activity; further: nearly all actives have a fitted effect of over 55% in size
Conditions: HEK293 HTT-AS promoter firefly luciferase reporter, 24 h; activity change, positive = activation: at 57.5 µM (top of the series), percent change from vehicle, -100% = no light unless noted
Outline: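 Firefly luciferase signal from promoter-reporter HEK293 cells was scaled between vehicle (0%) and zero RLU (-100%). Compounds were tested at final concentrations of up to 57.5 uM over 24 h at 37 degrees C. PTC124 at 50 uM final served as control inhibitor.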
Potency means the concentration at half of the fitted maximal effect; tags describe the fitted curve by direction and shape.

| SMILES | Potency | activity change, positive = activation |
| --- | --- | --- |
| Cc1ccc(S(=O)(=O)c2nnn3c2nc(N2CCCC2)c2sccc23)cc1 | inactive | – |
| COc1ccc(Br)cc1C(=O)Nc1ccc(-c2nc3cc(Cl)ccc3o2)cc1 | inactive | – |
| COC(=O)C(C)n1nnc2sc(-c3ccccc3)cc2c1=O (stereo not given) | inconclusive: 2.51 µM [activator, single point] | – |
| O=C(COc1ccccc1[N+](=O)[O-])Nc1cccc(-c2nc3ccccc3s2)c1 | inconclusive: 2.82 µM [activator, full curve, poor fit] | – |
| O=C(COc1ccccc1)NC1CC(=O)N(c2ccc3c(c2)OCCO3)C1 (stereo not given) | inactive | – |
| Cc1ccc(OCC(=O)Nc2cc3nn(-c4ccccc4)nc3cc2C)cc1 | inconclusive: 1 µM [activator, full curve, poor fit] | – |
| Cc1cc(Cl)ccc1NC(=O)C(=O)NCc1ccco1 | inconclusive: 15.8 µM [activator, partial curve] | – |
| CC(C)(O)[C@H]1CC[C@@](C)([C@H]2[C@@H](O)C[C@@]3(C)[C@@H]4C[C@H](O[C@@H]5O[C@H](CO)[C@@H](O)[C@H](O)[C@@H]5O)[C@H]5C(C)(C)[C@@H](O[C@@H]6OC[C@@H](O)[C@H](O)[C@@H]6O)CC[C@@]56C[C@@]46CC[C@]23C)O1 | inactive | – |
| Cc1ccccc1C(=O)n1nc(-c2ccco2)nc1NCc1ccc(Cl)cc1 | inconclusive: 2 µM [activator, full curve, poor fit] | – |
| Cc1ccc(NC(=O)/C=C/c2ccccc2)c(Br)c1 | inconclusive: 1 µM [activator, full curve, poor fit] | – |
| Cc1ccc(C)c(CN2C(=O)c3ccccc3S(=O)(=O)c3ccc(C(=O)Nc4ccccc4C(F)(F)F)cc32)c1 | – | inconclusive: -44% [activator] |
| CCOC(=O)c1cccc(NC(=O)c2cc(CN3CCCC3)on2)c1 | inconclusive: 35.5 µM [activator, partial curve, poor fit] | – |
| COC(=O)c1ccc(Nc2ncnc3c2nc2n3CCCC2)cc1 | inconclusive: 1 µM [activator, partial curve, poor fit] | – |
| COc1ccccc1-c1nc(-c2ccc(Br)o2)no1 | inconclusive: 0.631 µM [activator, full curve, poor fit] | – |
| Cc1c(Cl)ccc2sc(N3CCN(C(=O)c4ccco4)CC3)nc12 | inconclusive: 20 µM [activator, partial curve, poor fit] | – |
| Cc1ccc(C(=O)Nc2ccc(Cl)c(-c3nc4ncccc4o3)c2)c(C)c1 | inconclusive: 10 µM [activator, partial curve] | – |
| CC(C)CCOc1ccc(C(=O)Nc2sc3c(c2C#N)CCCCC3)cc1 | inactive | – |
| CCc1ccc(NC(=O)c2ccc3c(c2)nnn3CC)cc1 | inconclusive: 2 µM [activator, full curve, poor fit] | – |
| Cn1c(SCc2ccc(F)cc2)nc2ccc(C(=O)NCc3ccc(F)cc3)cc21 | inactive | – |
| Cc1nn(CC(=O)NC2CC2)c(=O)c2cc3ccccc3n12 | – | inconclusive: 41% [activator] |
| Cc1ccc(NC(=O)Cn2c(-c3ccc4c(c3)OCO4)cn(-c3ccccc3)c2=O)cc1C | – | inconclusive: 21.2% [activator] |
| Cc1[nH]c2ccccc2c1C(=O)C(=O)NC1CC(=O)N(c2cccc(F)c2)C1 (stereo not given) | – | inconclusive: 20.6% [activator] |

| SMILES | Potency | activity change, positive = activation |
| --- | --- | --- |
| COc1cccc(-c2cc(=O)c3ccccc3o2)c1N | inconclusive: 1.37 µM [activator, full curve] | – |
| Cc1ccc2nc(-c3ccc(NC(=O)COc4c(C)ccc(C)c4C)cc3)sc2c1 | inconclusive: 31.6 µM [activator, partial curve, poor fit] | – |
| COc1ccc2nc(N3CCN(C(=O)c4ccco4)CC3)sc2c1 | inconclusive: 1.78 µM [activator, full curve, poor fit] | – |
| COc1cccc(C(=O)n2nc(-c3ccco3)nc2NCc2cccs2)c1 | inconclusive: 11.2 µM [activator, partial curve] | – |
| Cc1ccc(NC(=O)CSc2[nH]c(=O)ncc2C)cc1 | inconclusive: 12.6 µM [activator, partial curve] | – |
| Clc1ccc(CSc2nc3ncccc3[nH]2)cc1 | inconclusive: 1.58 µM [activator, full curve, poor fit] | – |
| COc1ccc(-c2cc(C(=O)NCCc3ccccc3)c3cc(C(C)C)ccc3n2)cc1 | inconclusive: 10 µM [activator, partial curve, poor fit] | – |
| COC(=O)Nc1nc2ccc(C(=O)c3cccs3)cc2[nH]1 | inactive | – |
| Cc1ccc(Cl)cc1N1CCN(CCNC(=O)Nc2ccc(Cl)cc2)CC1 | – | inconclusive: -20.2% [activator] |
| CN1CCN(CCCN2c3ccccc3Sc3ccc(C(F)(F)F)cc32)CC1 | inactive | – |
| COCCCNC(=O)C1CCC(Cn2c(=O)c3sccc3n(Cc3ccc(F)cc3)c2=O)CC1 (stereo not given) | inactive | – |
| CC1=C(C(=O)Nc2cccnc2)C(c2ccccc2)n2nc(SCc3ccccc3F)nc2N1 (stereo not given) | inactive | – |
| CCOc1ccc(NC(=O)CSc2nccn2Cc2ccco2)cc1 | inconclusive: 14.1 µM [activator, partial curve] | – |
| COc1ccc(-c2nc3ccccc3s2)cc1NC(=O)COc1ccc(C)cc1 | inconclusive: 1.12 µM [activator, full curve] | – |
| CCCN1CCN(CCNC(=O)Nc2ccc(OC)cc2OC)CC1 | – | inconclusive: 16.1% [activator] |
| CCCOc1cccc(C(=O)Nc2cccc(NC(=O)c3ccc(C(C)(C)C)cc3)c2)c1 | inconclusive: 39.8 µM [activator, single point] | – |
| Cc1ccc(Nc2c(-c3c[nH]c4ccccc34)nc3cc(C)ccn23)cc1 | inconclusive: 1.58 µM [activator, full curve, poor fit] | – |
| CCCCN(C)CCCNC(=O)C1CCN(c2nc3ccc(CC)cc3s2)CC1 | inconclusive: 2 µM [activator, full curve, poor fit] | – |
| O=C(NC1CCCCC1)c1ccc(Cn2c(SCc3ccccc3F)nc3cccnc32)cc1 | inactive | – |
| COc1cccc(NC(=O)c2ccc3nc(CCc4ccccc4)oc3c2)c1 | inconclusive: 1.41 µM [activator, partial curve, poor fit] | – |
| CCC(=O)Oc1ccc(/C=C(\C#N)c2nc3ccccc3[nH]2)cc1OC | inconclusive: 15.8 µM [activator, partial curve, poor fit] | – |
| Cc1ccc(Nc2c(-c3cccs3)nc3nc(C)cc(C)n23)cc1 | inconclusive: 35.5 µM [activator, single point] | – |

| SMILES | Potency | activity change, positive = activation |
| --- | --- | --- |
| O=c1c2c(-c3ccccc3)ccnc2[nH]n1-c1ccccc1 | inconclusive: 5.62 µM [activator, partial curve] | – |
| COCCN1C(=O)c2[nH]nc(-c3ccccc3O)c2C1c1ccc(Cl)c(Cl)c1 (stereo not given) | inactive | – |
| C[C@H](CCC(=O)O)[C@H]1CCC2C3C[C@H](O)[C@@H]4C[C@H](O)CC[C@]4(C)C3CC[C@@]21C (stereo not given in full) | inactive | – |
| O=C(O)[C@H](O)c1ccccc1 | inactive | – |
| Cc1ccc(C(=O)O)cc1Nc1nc2ccccc2n2nnnc12 | inconclusive: 6.31 µM [activator, partial curve] | – |
| CCn1cc(C(=O)N2CCN(c3ccccc3F)CC2)c(=O)c2cc(S(=O)(=O)N(C)C3CCCCC3)ccc21 | inactive | – |
| CCOC(=O)c1cccc(NC(=O)c2ccc3c(Cl)c4c(nc3c2)CCC4)c1 | inactive | – |
| Cc1ccc(-c2nnc(SCc3ccccc3C#N)o2)cc1 | inconclusive: 0.316 µM [activator, full curve, poor fit] | – |
| Cc1ccc(C)c(NC(=O)Cn2c(=O)n(Cc3ccco3)c(=O)c3oc4ccccc4c32)c1 | – | inconclusive: 17.1% [activator] |
| Nc1cccc(-c2cn3ccsc3n2)c1 | inconclusive: 20 µM [activator, partial curve] | – |
| CSc1nnc(NC(=O)Cc2coc3cc(C)ccc23)s1 | inconclusive: 22.4 µM [activator, single point] | – |
| COc1cc(/C=C(\C#N)c2nc3ccccc3n2C)cc(OC)c1OC | inconclusive: 15.8 µM [activator, partial curve, poor fit] | – |
| CCCCC(CC)CNC(=O)c1ccc2c(=O)n(Cc3ccc(OC)cc3)c(=O)[nH]c2c1 (stereo not given) | inactive | – |
| CCc1nonc1NC(=O)c1oc2ccccc2c1C | inconclusive: 17.8 µM [activator, partial curve, poor fit] | – |
| COc1ccccc1-c1cc(C(=O)N2CCCCC2C)no1 (stereo not given) | inconclusive: 12.6 µM [activator, partial curve, poor fit] | – |
| Nc1c(-c2nc(-c3cccs3)no2)nnn1-c1cccc(Cl)c1 | inconclusive: 3.55 µM [activator, partial curve, poor fit] | – |
| CCc1ccc(Nc2ncnc3c2cnn3-c2cc(Cl)ccc2C)cc1 | inconclusive: 1.78 µM [activator, full curve, poor fit] | – |
| COC(=O)c1c(-c2ccc(Cl)cc2)noc1N1CCN(c2cccc(C(F)(F)F)c2)CC1 | – | inconclusive: -31% [activator] |
| Cc1cc(C)nc(NS(=O)(=O)c2ccc(NC(=O)COc3ccc(C(C)(C)C)cc3)cc2)n1 | inactive | – |
| Cc1ccccc1-c1nc2cc(NC(=O)COc3ccc(F)cc3)ccc2o1 | inconclusive: 2.24 µM [activator, full curve, poor fit] | – |
| O=C(NCc1cccc(F)c1)c1cccc(NC(=O)c2nsc3ccccc23)c1 | inconclusive: 1.78 µM [activator, full curve, poor fit] | – |
